One experiment deals with T1, RIIA (UniProt P12318 36-218, limits assumed).
T1 construct: also called FcRIIA; His-tagged receptor; not shown: His tag
T1 sequence (looked up): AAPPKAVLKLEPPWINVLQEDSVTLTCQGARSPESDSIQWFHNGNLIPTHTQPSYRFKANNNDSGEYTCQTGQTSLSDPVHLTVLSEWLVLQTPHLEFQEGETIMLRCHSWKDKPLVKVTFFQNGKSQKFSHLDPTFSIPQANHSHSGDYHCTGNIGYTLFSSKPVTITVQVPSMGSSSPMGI
Briefly: BLI (Octet HTX); His-tagged FcRIIA loaded on anti-penta-His (HIS1K) biosensor, TMMP at 300, 100 and 33.3 nM; noisy traces, response at most about 0.035 nm [Cont.]. A general note: In BLI a coated tip is dipped into the sample, and binding shifts an interference pattern.

The next experiment concerns the target T2, IIB (UniProt P31994 46-217, limits assumed).
T2 construct: also called FcRIIB; His-tagged receptor; not shown: His tag
T2 sequence (looked up): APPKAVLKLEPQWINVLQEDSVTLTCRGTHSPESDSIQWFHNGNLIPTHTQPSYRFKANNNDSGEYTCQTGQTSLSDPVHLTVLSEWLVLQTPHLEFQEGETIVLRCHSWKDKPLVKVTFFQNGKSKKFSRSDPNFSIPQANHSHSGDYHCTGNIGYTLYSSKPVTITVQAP
Briefly: BLI (Octet HTX); His-tagged FcRIIB loaded on anti-penta-His (HIS1K) biosensor, TMMP at 300 and 100 nM; noisy traces, response at most about 0.02 nm, no fall in the dissociation step [Cont.].

B1: “3425+3529” TMPP (T-cell modulatory multimeric polypeptide comprising polypeptide 3425 and polypeptide 3529) (Fc fusion)
MHC heavy: GSHSMRYFSTSVSRPGRGEPRFIAVGYVDDTQFVRFDSDAASQRMEPRAPWIEQEGPEYWDEETGKVKAHSQTDRENLRIALRCYNQSEAGSHTLQMMFGCDVGSDGRFLRGYHQYAYDGKDYIALKEDLRSWTAADMAAQITKRKWEAAHVAEQQRAYLEGTCVDGLRRYLENGKETLQRTDPPKTHMTHHPISDHEATLRCWALGFYPAEITLTWQRDGEDQTQDTELVETRPCGDGTFQKWAAVVVPSGEEQRYTCHVQHEGLPKPLTLRWEAAAGG[skipping human IgG1 Fc with changes]GGGGSGGGGSGGGGS[skipping about 150 residues]GGGGSGGGGSGGGGSGGGGS[skipping about 150 residues]
b2m: NYMNLGATLGCGGSGGGGSGGGGS[skipping about 100 residues]
The Kd is the constant that tells how readily two partners part at equilibrium. Consider B1, for which the Kd in the experiment with RIIA stood at 156 nM; with IIB, 5720 nM.
